Results from the antibiotic and cytotoxicity screens of Wong et al. (2023).
The list shows a part of the results.

What follows are molecules tested on S. aureus RN4220 (assay: growth inhibition call (relative growth <= 0.2)). Settings: 50 µM.

Growth inhibition call, inactive:
CN1C(=O)CC(C)(c2ccccc2)C1=O (stereo unspecified)
COC(=O)c1ccccc1S(=O)(=O)NC(=O)Nc1nc(C)c2c(n1)CCS(=O)(=O)C2
C[C@@H]1CN([C@H](C)CO)C(=O)c2cc(N(C)C)ccc2O[C@@H](C)CCCCO[C@@H]1CN(C)Cc1ccc(C(=O)Nc2ccccc2N)cc1
C[C@H]1CN([C@@H](C)CO)S(=O)(=O)c2ccc(C#CC3CC3)cc2O[C@@H]1CN(C)C(=O)Cc1ccncc1
COc1ccc(S(=O)(=O)N(C)C[C@@H]2OCCCC[C@H](C)Oc3ccc(NC(=O)NC4CCCCC4)cc3C(=O)N([C@@H](C)CO)C[C@H]2C)cc1
C[C@@H]1CN([C@H](C)CO)C(=O)c2ccccc2-c2ccccc2CO[C@H]1CN(C)C(=O)Nc1cccc(C(F)(F)F)c1
C[C@@H]1CN([C@@H](C)CO)C(=O)c2cccc(NC(=O)c3ccncc3)c2O[C@H]1CN(C)Cc1ccc(C(=O)O)cc1
COc1cccc(S(=O)(=O)N(C)C[C@@H]2Oc3ncc(-c4cccc(C(=O)N(C)C)c4)cc3C(=O)N([C@@H](C)CO)C[C@H]2C)c1
COc1cccc(S(=O)(=O)N(C)C[C@H]2Oc3ncc(C#CCN(C)C)cc3C(=O)N([C@@H](C)CO)C[C@H]2C)c1
C[C@@H]1CCCCO[C@H](CN(C)Cc2ccc(Cl)c(Cl)c2)[C@@H](C)CN([C@H](C)CO)C(=O)c2cc(N(C)C)ccc2O1
COc1ccc(S(=O)(=O)N(C)C[C@H]2Oc3ccc(NS(C)(=O)=O)cc3C(=O)N([C@@H](C)CO)C[C@@H]2C)cc1
